# Data taken from the supplement of paper PMC8728848.
# The other results are listed elsewhere or left out.
# B1: Siglec 6 (Homo sapiens), O43699 (protein)
# chain: MLPLLLPLLWAGALAQERRFQLEGPESLTVQEGLCVLVPCRLPTTLPASYYGYGYWFLEGADVPVATNDPDEEVQEETRGRFHLLWDPRRKNCSLSIRDARRRDNAAYFFRLKSKWMKYGYTSSKLSVRVMALTHRPNISIPGTLESGHPSNLTCSVPWVCEQGTPPIFSWMSAAPTSLGPRTTQSSVLTITPRPQDHSTNLTCQVTFPGAGVTMERTIQLNVSYAPQKVAISIFQGNSAAFKILQNTSSLPVLEGQALRLLCDADGNPPAHLSWFQGFPALNATPISNTGVLELPQVGSAEEGDFTCRAQHPLGSLQISLSLFVHWKPEGRAGGVLGAVWGASITTLVFLCVCFIFRVKTRRKKAAQPVQNTDDVNPVMVSGSRGHQHQFQTGIVSDHPAEAGPISEDEQELHYAVLHFHKVQPQEPKVTDTEYSEIKIHK
# What was measured:
# Experiment in all cases: glycan array binding signal (z-score within array); higher = stronger binding
# Settings in all cases: glycan notation: IUPAC condensed, linker removed
# Gal(a1-4)GlcNAc = molecular target: Gal(a1-4)GlcNAc
# How it was run: (§1)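 Glycan array data were curated from 3228 arrays in the Consortium for Functional Glycomics database and kept only where the protein sequence was available. Glycan names were converted to IUPAC-condensed notation, and columns mapping to the same glycan were averaged. The binding signal is a within-array Z-score, averaged across arrays of the same protein sequence at different concentrations or buffers and across linkers. Negative Z-scores can be read as non-binding.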
# Gal(a1-6)Glc = molecular target: Gal(a1-6)Glc
# How it was run: as §1
# Gal(b1-2)Gal = molecular target: Gal(b1-2)Gal
# How it was run: as §1
# Gal(b1-3)Gal = molecular target: Gal(b1-3)Gal
# How it was run: as §1
# Gal(b1-3)GalNAc = molecular target: Gal(b1-3)GalNAc
# How it was run: as §1
# [1] = molecular target: Gal(b1-3)GalNAc(b1-3)Gal(a1-4)Gal(b1-4)Glc
# How it was run: as §1
# [2] = molecular target: Gal(b1-3)GalNAc(b1-3)Gal(b1-4)Glc
# How it was run: as §1
# [3] = molecular target: Gal(b1-3)GalNAc(b1-3)Gal(b1-4)GlcNAc
# How it was run: as §1
# [4] = molecular target: Gal(b1-3)GalNAc(b1-4)Gal(b1-4)Glc
# How it was run: as §1
# [5] = molecular target: Gal(b1-3)GalNAc(b1-4)[Neu5Ac(a2-3)]Gal(b1-4)Glc
# How it was run: as §1
# [6] = molecular target: Gal(b1-3)[Fuc(a1-4)]GlcNAc
# How it was run: as §1
# [7] = molecular target: Gal(b1-3)[Fuc(a1-4)]GlcNAc(b1-3)Gal(b1-4)GlcNAc
# How it was run: as §1
# [8] = molecular target: Gal(b1-3)[Fuc(a1-4)]GlcNAc(b1-3)Gal(b1-4)[Fuc(a1-3)]GlcNAc
# How it was run: as §1
# [9] = molecular target: Gal(b1-3)[GlcNAc(b1-6)]GalNAc
# How it was run: as §1
# [10] = molecular target: Gal(b1-3)[GlcNAc(b1-6)]GlcNAc
# How it was run: as §1
# [11] = molecular target: Gal(b1-3)[Neu5Ac(a2-6)]GalNAc
# How it was run: as §1
# [12] = molecular target: Gal(b1-3)[Neu5Ac(a2-6)]GlcNAc
# How it was run: as §1
# [13] = molecular target: Gal(b1-3)[Neu5Ac(a2-6)]GlcNAc(a1-4)Gal(b1-4)Glc
# How it was run: as §1
# [14] = molecular target: Gal(b1-3)[Neu5Ac(b2-6)]GlcNAc
# How it was run: as §1
# [15] = molecular target: Gal(b1-4)GalNAc(a1-3)[Fuc(a1-2)]Gal(b1-4)GlcNAc
# How it was run: as §1
# [16] = molecular target: Gal(b1-4)GalNAc(b1-3)[Fuc(a1-2)]Gal(b1-4)GlcNAc
# How it was run: as §1
# Gal(b1-4)Glc = molecular target: Gal(b1-4)Glc
# How it was run: as §1
# Gal(b1-4)Glc6S = molecular target: Gal(b1-4)Glc6S
# How it was run: as §1
# Gal(b1-4)GlcNAc = molecular target: Gal(b1-4)GlcNAc
# How it was run: as §1
# [17] = molecular target: Gal(b1-4)GlcNAc(b1-2)Man(a1-3)[Gal(b1-4)GlcNAc(b1-2)Man(a1-6)]Man(b1-4)GlcNAc(b1-4)GlcNAc
# How it was run: as §1
# [18] = molecular target: Gal(b1-4)GlcNAc(b1-3)Gal(b1-4)Glc
# How it was run: as §1
# [19] = molecular target: Gal(b1-4)GlcNAc(b1-3)Gal(b1-4)GlcNAc
# How it was run: as §1
# [20] = molecular target: Gal(b1-4)GlcNAc(b1-3)Gal(b1-4)GlcNAc(b1-3)Gal(b1-4)GlcNAc
# How it was run: as §1
# [21] = molecular target: Gal(b1-4)GlcNAc(b1-3)Gal(b1-4)[Fuc(a1-3)]GlcNAc(b1-3)Gal(b1-4)[Fuc(a1-3)]GlcNAc
# How it was run: as §1
# [22] = molecular target: Gal(b1-4)GlcNAc(b1-3)GalNAc
# How it was run: as §1
# [23] = molecular target: Gal(b1-4)GlcNAc(b1-3)[Gal(b1-4)GlcNAc(b1-6)]GalNAc
# How it was run: as §1
# [24] = molecular target: Gal(b1-4)GlcNAc(b1-6)GalNAc
# How it was run: as §1
# [25] = molecular target: Gal(b1-4)GlcNAc(b1-6)[Gal(b1-3)]GalNAc
# How it was run: as §1
# [26] = molecular target: Gal(b1-4)GlcNAc(b1-6)[Gal(b1-3)]GlcNAc
# How it was run: as §1
# Gal3S(b1-3)GalNAc = molecular target: Gal3S(b1-3)GalNAc
# How it was run: as §1
# Gal3S(b1-3)GlcNAc = molecular target: Gal3S(b1-3)GlcNAc
# How it was run: as §1
# [27] = molecular target: Gal3S(b1-3)[Fuc(a1-4)]GlcNAc
# How it was run: as §1
# Gal3S(b1-4)Glc = molecular target: Gal3S(b1-4)Glc
# How it was run: as §1
# Gal3S(b1-4)Glc6S = molecular target: Gal3S(b1-4)Glc6S
# How it was run: as §1
# Gal3S(b1-4)GlcNAc = molecular target: Gal3S(b1-4)GlcNAc
# How it was run: as §1
# Gal3S(b1-4)GlcNAc6S = molecular target: Gal3S(b1-4)GlcNAc6S
# How it was run: as §1
# Gal3S6S(b1-4)GlcNAc = molecular target: Gal3S6S(b1-4)GlcNAc
# How it was run: as §1
# Gal3S6S(b1-4)GlcNAc6S = molecular target: Gal3S6S(b1-4)GlcNAc6S
# How it was run: as §1
# Gal4S(b1-4)GlcNAc = molecular target: Gal4S(b1-4)GlcNAc
# How it was run: as §1
# Gal4S6S(b1-4)GlcNAc = molecular target: Gal4S6S(b1-4)GlcNAc
# How it was run: as §1
binder,measurement,setting,value
B1,glycan array binding signal (z-score),Gal(a1-4)GlcNAc,-0.074
same,glycan array binding signal (z-score),Gal(a1-6)Glc,0.178
same,glycan array binding signal (z-score),Gal(b1-2)Gal,-0.401
same,glycan array binding signal (z-score),Gal(b1-3)Gal,-0.354
same,glycan array binding signal (z-score),Gal(b1-3)GalNAc,-0.375
same,glycan array binding signal (z-score),[1],-0.358
same,glycan array binding signal (z-score),[2],-0.105
same,glycan array binding signal (z-score),[3],-0.195
same,glycan array binding signal (z-score),[4],-0.373
same,glycan array binding signal (z-score),[5],-0.452
same,glycan array binding signal (z-score),[6],-0.439
same,glycan array binding signal (z-score),[7],-0.182
same,glycan array binding signal (z-score),[8],0.013
same,glycan array binding signal (z-score),[9],-0.191
same,glycan array binding signal (z-score),[10],-0.279
same,glycan array binding signal (z-score),[11],-0.179
same,glycan array binding signal (z-score),[12],-0.381
same,glycan array binding signal (z-score),[13],0.28
same,glycan array binding signal (z-score),[14],-0.37
same,glycan array binding signal (z-score),[15],-0.435
same,glycan array binding signal (z-score),[16],0.697
same,glycan array binding signal (z-score),Gal(b1-4)Glc,-0.373
same,glycan array binding signal (z-score),Gal(b1-4)Glc6S,0.057
same,glycan array binding signal (z-score),Gal(b1-4)GlcNAc,-0.454
same,glycan array binding signal (z-score),[17],-0.29
same,glycan array binding signal (z-score),[18],-0.356
same,glycan array binding signal (z-score),[19],-0.175
same,glycan array binding signal (z-score),[20],-0.516
same,glycan array binding signal (z-score),[21],-0.404
same,glycan array binding signal (z-score),[22],-0.399
same,glycan array binding signal (z-score),[23],0.126
same,glycan array binding signal (z-score),[24],-0.483
same,glycan array binding signal (z-score),[25],-0.521
same,glycan array binding signal (z-score),[26],0.046
same,glycan array binding signal (z-score),Gal3S(b1-3)GalNAc,-0.276
same,glycan array binding signal (z-score),Gal3S(b1-3)GlcNAc,-0.07
same,glycan array binding signal (z-score),[27],-0.217
same,glycan array binding signal (z-score),Gal3S(b1-4)Glc,-0.263
same,glycan array binding signal (z-score),Gal3S(b1-4)Glc6S,1.73
same,glycan array binding signal (z-score),Gal3S(b1-4)GlcNAc,-0.01
same,glycan array binding signal (z-score),Gal3S(b1-4)GlcNAc6S,3.66
same,glycan array binding signal (z-score),Gal3S6S(b1-4)GlcNAc,5.12
same,glycan array binding signal (z-score),Gal3S6S(b1-4)GlcNAc6S,6.44
same,glycan array binding signal (z-score),Gal4S(b1-4)GlcNAc,-0.089
same,glycan array binding signal (z-score),Gal4S6S(b1-4)GlcNAc,3
